The other results are listed elsewhere or left out.
T1: UNK ZnF1-3 (human, UniProt Q9C0B0 31-174)
T1 sequence: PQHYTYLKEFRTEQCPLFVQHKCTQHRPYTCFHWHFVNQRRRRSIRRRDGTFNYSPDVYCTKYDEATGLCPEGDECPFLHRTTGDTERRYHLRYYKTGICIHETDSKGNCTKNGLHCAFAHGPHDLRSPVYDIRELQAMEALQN

B1: chr1:220369670:220369671:-_ENSG00000118873_ENST00000358951|hu_hu|motif|central (ssRNA)
RNA: GGGAGUUCUACAGUCCGACGAUCGAAGCCAGUAAAUGGAUUGGACCCUACAGUGAUAUACUGAGACAUGGCAGGUGGACGGUUUUUAAUUGCUGCAUUAAAUCCACCUAUAUUGGAGGCAGUCUUCAUUUGAUCAAAGGGGGACAACAGAGGAUUGAGCAUCA
B2: chr6:83912004:83912005:+_ENSMUSG00000030016_ENSMUST00000032088|mus_mus|motif|central (ssRNA)
RNA: GGGAGUUCUACAGUCCGACGAUCUAAGUUGUAAAUUUCUUCUGUAGAAUAUCCUUUGUUAGGCAAAUUAGAAAUAAAUACGGCACUCAUUUCCUCCGAUUCCUUGUUCACUGGUUCCUUUUCUGUGGCCUCCAAAGUACCUGACAACAGAGGAUUGAGCAUCA
B3: chr15:40462788:40462789:+_ENSG00000156970_ENST00000287598|hu_hu|motif|central (ssRNA)
RNA: GGGAGUUCUACAGUCCGACGAUCAAAUCGAGGAUCACUAUAAUAUCGUUUUUCUCCUUGUAGUGCUUCUACAGCUCUUUCGGAUAACGUUGACAUAUUACUCUCCUUCCCACCUUGAGGAUAGUUCUGCUCUGUCCAGCUGAUCAACAGAGGAUUGAGCAUCA
B4: 26115837_26116139_1780_CDS_ENSMUSG00000045039_ENSMUST00000128119|mouse|control|control (ssRNA)
RNA: GGGAGUUCUACAGUCCGACGAUCCGGGGCAAGCUCAGCCCCUGACACCCACUGGUGGCAGCCAAGGUGGUAGAAGAAGAUGCCAUCUUCGUAACACUUUUCCUCCUGGUAAUGCGUAUGCACAUUGCCCCCAUAGACCACCAUCAACAGAGGAUUGAGCAUCA
B5: chr3:9412954:9412955:+_ENSG00000134077_ENST00000452837|hu_mus|hu_hu_hu_mus_False|18_48 (ssRNA)
RNA: GGGAGUUCUACAGUCCGACGAUCGGUUGAUAUCUCUUCUUUGAUGGCUGGAUUUUCAUAAUAGUCCAAGAUAUGUGAAUCUGAAGUAUGGCUAGUGUGCUUUUUCUUACCAUCUUUCUGAUCGAUUUUGUCUCCUUGUCCACACAACAGAGGAUUGAGCAUCA
B6: chr5:143667385:143667386:-_ENSMUSG00000029580_ENSMUST00000171419|mus_mus|FALSE|FALSE (ssRNA)
RNA: GGGAGUUCUACAGUCCGACGAUCCGACCAGCGCAGCGAUAUCGUCAUCCAUGGCGAACUAUCAAGACACAAAAGAAGGCUAUAGUCACCUCGGGGCCGCCAAGAGCAGCCGCUGCCGCCCUGCCCACUUCCGGCAAGCCGCGGCAACAGAGGAUUGAGCAUCA

biological target: T1, UNK ZnF1-3; test: nsRBNS (natural sequence RNA bind-n-seq); RBNS binding buffer (assumed for nsRBNS): 25 mM Tris pH 7.5, 150 mM KCl, 3 mM MgCl2, 0.01% Triton X-100, 500 ug/ml BSA, 20 U/ml SUPERase-In, 4 C; UNK is unkempt and MSI1 is Musashi-1; names of the RNAs are library labels; protein concentration not given here; high values mean tight binding

With B1 as the binder, how does the binding signal read?
The binding signal was 1.64 enrichment R.

Which binding signal does the source give for B2 here?
The binding signal was 1.05 enrichment R.

Which binding signal does the source give for B3 here?
The binding signal was 0.664 enrichment R.

B4 was tested. Which binding signal did it give?
The binding signal was 0.854 enrichment R.

How did the binding signal turn out when B5 was run?
Its binding signal is 0.4 enrichment R.

How did the binding signal turn out when B6 was run?
Its binding signal is 0.726 enrichment R.

From PMC12136788
